# In the supplement of paper PMC3334620:
# Whole data set: some 33,000 sequences, median “E-score (-0.5 to 0.5)” near -0.013, cut for the highest 2% near 0.3. Some of the results follow.
# Biological target: T1, Msn1 (UniProt P22148)
# T1 sequence: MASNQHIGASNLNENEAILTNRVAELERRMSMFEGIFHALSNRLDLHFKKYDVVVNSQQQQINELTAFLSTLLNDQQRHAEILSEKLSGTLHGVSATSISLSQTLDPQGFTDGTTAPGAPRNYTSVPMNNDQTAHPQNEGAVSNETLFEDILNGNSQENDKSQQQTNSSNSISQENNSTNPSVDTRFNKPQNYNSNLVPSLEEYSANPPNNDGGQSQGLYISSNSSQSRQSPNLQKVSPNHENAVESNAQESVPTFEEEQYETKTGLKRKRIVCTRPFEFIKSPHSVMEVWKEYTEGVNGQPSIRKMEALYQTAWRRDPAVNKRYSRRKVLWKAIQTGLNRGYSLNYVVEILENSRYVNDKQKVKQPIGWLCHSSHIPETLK
# Experiment: PBM E-score (8-mer binding enrichment) (E-score (-0.5 to 0.5)); higher = stronger / more preferred TF binding; most listed sequences are background and not binding sites
# Details: protein concentration: 200 nM; construct: GST-full length
# Protocol: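 Universal 'all 10-mer' protein binding microarrays (Agilent AMADID 015681) probed with GST-tagged S. cerevisiae TFs (full-length or DBD) made by in vitro transcription/translation (PURExpress), about 100-200 nM. Bound TF was detected with fluorescent anti-GST. Each ungapped 8-mer (which stands for itself and its reverse complement) is scored by the PBM enrichment score (E-score), a modified Wilcoxon-Mann-Whitney statistic from -0.5 to +0.5, computed with the Universal PBM Analysis Suite. Scale: above 0.35 generally sequence-specific binding.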
row,Sequence,PBM E-score
1,CCATCTAC,-0.0608
2,CCAGATGG,-0.255
3,ATTAATGC,0.0284
4,CGCAAAGA,-0.0742
5,GCTGCTCA,-0.105
6,ATGGATCG,0.0194
7,CACAAGAG,0.0612
8,GAATGCAC,-0.00702
9,ACCCGCTC,-0.299
10,CACCGCTG,-0.198
11,AGAACTAC,-0.0862
12,GAAGCCAA,-0.134
13,ATGGCTCG,-0.00413
14,CAGCATGC,-0.113
15,TGCGCGCA,0.00461
16,CTCACTCA,0.0343
17,ATCCTTCC,-0.368
18,CGACAAGA,0.121
19,ATAGGGAA,-0.169
20,GGCACTCA,-0.349
21,AGCAACTG,0.0149
22,ACTAAAAT,0.12
23,TCGGACGA,0.199
24,CTATTCCA,0.185
25,GTCCTGAA,0.241

row,Sequence,PBM E-score
1,AATCCAGA,0.106
2,ATGCGGCG,-0.0411
3,CAGAAGAA,-0.119
4,AAACTGTT,0.08
5,AACTCGTG,0.0411
6,AACATTCT,0.108
7,CTGGACAC,0.29
8,AGCCCGGG,-0.089
9,AATCGCCC,-0.277
10,AGGATCAT,-0.0592
11,GCGGGGTA,-0.0904
12,CTAAATAA,0.155
13,TACAATGA,0.0558
14,GGTGAGGA,-0.145
15,GCAATCAA,0.102
16,ATTACCCC,0.0887
17,CCGCGACA,0.299
18,GCTACTAC,0.0603
19,ATTTGGAC,0.366
20,TAGCAAGA,0.0309
21,AAGCACGT,-0.0893
22,CGGTCATA,-0.132
23,ATTCCAAG,-0.0629
24,GGATGCTA,0.0152
25,ATGTCCCA,0.485

row,Sequence,PBM E-score
1,AATCATAA,0.203
2,ATGTGGTC,-0.0995
3,TAAGTGCA,0.11
4,AGACACTA,0.204
5,ACCCAAAT,0.193
6,GATAGGGA,-0.0954
7,CCGCTACC,0.0857
8,GAGAAAGC,0.017
9,CCAGTTGA,-0.0607
10,GATAGATC,0.0608
11,ACTCCTGA,0.103
12,AACCACGT,-0.0931
13,TACCTGCA,-0.132
14,ACCCCGCT,-0.187
15,CACTCGGA,0.131
16,GACGCGTA,0.173
17,GCTGATTA,0.0491
18,AGAAACGG,0.171
19,CATACTAC,-0.0556
20,GGTAACAA,0.203
21,AGTACACG,0.282
22,AAAATTCT,-0.0579
23,GAAATCAC,0.157
24,CGGGGATC,-0.255
25,CTGTTCCC,-0.115

row,Sequence,PBM E-score
1,CAGCTCGA,-0.123
2,AAGTTGTC,0.298
3,AGTCGCCG,-0.0359
4,CTAATTAA,-0.0214
5,AGGGGAGC,-0.419
6,CACCGGAG,-0.0567
7,ACAAACCC,0.247
8,AACAATAT,0.264
9,GGACGGCC,-0.247
10,TACGCCCA,-0.0824
11,CGGTATAG,-0.0764
12,CATCCTTC,-0.287
13,CTTAATGC,0.0167
14,AAACGGTG,0.0164
15,AAACAATT,0.0967
16,CCCCTCAG,-0.343
17,AACCTGGA,0.119
18,CATACAAC,0.0723
19,CCGGATTC,-0.00075
20,CTCCTACA,-0.187
21,AGCTTCCC,-0.237
22,AACCACTT,-0.0717
23,TGCTACAA,0.0284
24,AAGTCTAA,0.0915
25,TGTAGAAA,-0.0523

row,Sequence,PBM E-score
1,CGGGTCGC,-0.198
2,TAGGTAAA,-0.101
3,TCTCATAA,-0.0283
4,CAATTTAG,0.121
5,CCTTCGCC,-0.397
6,ATGCTCAC,-0.256
7,ACATCTCC,0.141
8,ATTCGCGG,0.167
9,AACGTCAG,-0.248
10,CATCGTTC,-0.00786
11,AGCCGCAC,-0.135
12,AACGCTGT,-0.0252
13,ATTAGGGC,-0.0238
14,AATATCCC,-0.0769
15,ATTGAACC,-0.0628
16,CAAATGCG,0.0944
17,TCCTACCA,-0.0959
18,ATTCCTTG,-0.0502
19,GCAGTTAA,0.0544
20,GAAGGAAA,-0.218
21,GGGTCAAC,0.0297
22,TGAGGGCA,-0.353
23,ACATCTAC,0.225
24,GGGTTCGA,-0.124
25,CCAGGCAC,-0.124

row,Sequence,PBM E-score
1,CCCTCTCG,-0.0829
2,CTCATTGC,-0.045
3,GAATTTCA,-0.0153
4,ATTAGATA,-0.0356
5,AGCCTCCA,-0.345
6,CAACCAAC,-0.068
7,TTCGGAAA,0.0991
8,AGGACGGG,-0.177
9,TAGCGTAA,0.0836
10,CCTGACGA,0.0724
11,CGCCCTTC,-0.179
12,CTAGCCTA,-0.0301
13,GGTACAAC,0.188
14,CTCTGCGC,0.141
15,AGTATTGC,0.0171
16,CCCGCTAG,-0.156
17,CAGAGTTC,-0.0226
18,GCTAAAAC,-0.0224
19,CGCCTCAC,-0.0815
20,GGTGTCAA,-0.129
21,GAACTTCA,0.0885
22,GAGATAGC,-0.267
23,AGTGCCGA,-0.0137
24,AAGTTGTG,0.00547
25,CACACGAC,-0.0129

row,Sequence,PBM E-score
1,ATTACACG,0.0529
2,AACAAATA,0.211
3,AGGCTTAC,-0.016
4,AAAAACGT,0.177
5,CGGCATAC,0.0828
6,CCGGACTA,0.16
7,TCCCACGA,0.0741
8,GCTAGGTA,-0.0437
9,AGGGTAAG,0.00826
10,AGATGAAT,-0.128
11,TAAACGCA,0.11
12,GAACGTAC,0.0783
13,CTCTTTAA,0.00419
14,ATAACTCA,0.0166
15,TCAATTAA,0.0786
16,ACTCTTGA,-0.0139
17,GGGCATAA,-0.0478
18,ACCACATA,0.0838
19,CATACGTA,0.111
20,GTGATCTA,0.00906
21,ACGCATCG,0.0443
22,AGGCTGAT,-0.176
